This passage reports binding signal results from PMC12136788.

T1: UNK ZnF1-3 (human, UniProt Q9C0B0 31-174)
T1 sequence: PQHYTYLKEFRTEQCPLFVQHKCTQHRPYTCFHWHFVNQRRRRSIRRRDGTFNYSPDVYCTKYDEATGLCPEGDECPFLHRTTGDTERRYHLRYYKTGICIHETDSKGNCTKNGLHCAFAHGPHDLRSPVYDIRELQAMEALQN

B1: 56912192_56916801_1919_3pUTR_ENSMUSG00000055296_ENSMUST00000068792|mouse|control|control (ssRNA)
RNA: GGGAGUUCUACAGUCCGACGAUCGUUGAGAAGGGCAGUGCCACUGUAGAAGAGGAUGGUCAGCAGGGUGGUGACUGUGGUGAACAGCAGGCUCACGUUCCGGCUCAUAACAAUCCACAGAGACUCCAGGAUCGAAAGAAAAGUCAACAGAGGAUUGAGCAUCA
B2: chr2:25464519:25464520:-_ENSG00000119772_ENST00000380746|hu_hu|FALSE|FALSE (ssRNA)
RNA: GGGAGUUCUACAGUCCGACGAUCGUACAUGAUCUUCCCCUGGUGCCGCACCAUGCCCACCGUGAUGGAGUCCUCACACACCUCCGAGGCAAUGUAGCGGUCCACCUGAAUGCCCAAGUCCUUCAGCACCAGGAGCCCUGUAGCCAACAGAGGAUUGAGCAUCA
B3: chr7:141441981:141441982:+_ENSG00000106028_ENST00000265304|hu_mus|hu_hu_hu_mus_False|48_58 (ssRNA)
RNA: GGGAGUUCUACAGUCCGACGAUCCUCAUGUCUUACAAACUGACGAAAUACCUGUAACACAGGUCUUCGAAACAUGGCUUCUAUUUUCUUUUCUUACUAAUCUUUAGGCUUUUCCUAAAGGAAAGAAAGAAAAGAGAAAAAUGACAACAGAGGAUUGAGCAUCA
B4: chr5:128448638:128448639:+_ENSG00000066583_ENST00000173527|hu_mus|hu_hu_hu_mus_False|18_98 (ssRNA)
RNA: GGGAGUUCUACAGUCCGACGAUCGGCACUCGCCUUAAUUAGAUUCUGAAUUUCCUUGAACUUCGGGUGGUCUUUGUCAGCCACCAGCUGUAGGAGGACAGCCUCACUAGUGGUCACUAUGAUCCCGGUGCGGGCAAGACGCUCCAACAGAGGAUUGAGCAUCA
B5: chr4:17845017:17845018:+_ENSG00000109805_ENST00000514176|hu_mus|hu_hu_hu_mus_False|28_98 (ssRNA)
RNA: GGGAGUUCUACAGUCCGACGAUCGCUCUCUUAACUUGAUCUUCAUUUAAGGAACUCUGCAAGGUUAAGUUUACUUUUCUGUAGCGCAGCUGUUUUGGCUCGUCUGGUAGUCUCAUCCUUCAUUUCUGAUGGUGGUUCAUGAUCCAACAGAGGAUUGAGCAUCA
B6: chr3:134197472:134197473:-_ENSG00000129055_ENST00000354910|hu_hu|FALSE|FALSE (ssRNA)
RNA: GGGAGUUCUACAGUCCGACGAUCAGGAGCCAAGCGUCAGUUUCCAAUGGGGGGAACAUUCUCAUGGAGGUACUGUAAGGCUAAGUCUGUCCACUUCAUUUCUUGUUCUUUGACAGAUUCUGUGGUGCCACCAUUGUCUUGUUCCAACAGAGGAUUGAGCAUCA
B7: chr11:102151369:102151370:-_ENSMUSG00000059995_ENSMUST00000137387|mus_hu|motif|central (ssRNA)
RNA: GGGAGUUCUACAGUCCGACGAUCCGGCUAGAGGCCUGCUGAGAUCCUCCUCUCCCUCUGGCCUCCUCUCGGAGGGAGACGGCGGAGGGCCAAGAAUAGAGAAGCCCAGGCCCCGGGAUUUAUUCUAACUCCUGCCAAAAUCUGCAACAGAGGAUUGAGCAUCA
B8: chr8:74858975:74858976:-_ENSG00000154582_ENST00000284811|hu_mus|hu_hu_hu_mus_True|1_38 (ssRNA)
RNA: GGGAGUUCUACAGUCCGACGAUCGACCUUGUAGGUAAAAUACAUGCACACUUUUGAUAGCACAUGUGAGGGGAUCUCUCUAAAAUUGACCUCGUUGGUUUCGUUCUCAGCAAACUGACCUGGACCACUCAACAUAGCUUUUAUCAACAGAGGAUUGAGCAUCA
B9: chr18:38477064:38477065:+_ENSMUSG00000060450_ENSMUST00000072376|mus_mus|FALSE|FALSE (ssRNA)
RNA: GGGAGUUCUACAGUCCGACGAUCGCUCUUCACAGGUUUAGAGAGCAUUCAUGAGGAAUACACUGGGCUUUUUCCUACUCUAGUGAGGAAAUAAAGACACACACUGCUGGGAUCAACAUUAAAACUGUCCUUGCCCACAAGAGGCAACAGAGGAUUGAGCAUCA
B10: chr11:9308113:9308114:-_ENSG00000166471_ENST00000528080|hu_hu|FALSE|FALSE (ssRNA)
RNA: GGGAGUUCUACAGUCCGACGAUCAUUAGGCAGAAAUGGUGUUAUUCUCAAAAAUAUAAUGUAGUUAAUGAGAUGUUCUCUAUGACGUUCAACCUGCUGUGACCAUUUUACUGCUUUCUCUGUUAGGUAUUUGUAUACAACUGGCAACAGAGGAUUGAGCAUCA
B11: 79828338_79828458_2081_3pUTR_ENSMUSG00000043881_ENSMUST00000061222|mouse|control|control (ssRNA)
RNA: GGGAGUUCUACAGUCCGACGAUCGUGAUGAAACUCUGACCAGGUUCAAGACAGGAAGGAUAAACUCGAUCACACAGGCAAAUAAAGCCAGAGUCAAACUGCAAAAGGCCUAACAUGGUGCCUAUAUUAAUCCAUUGGUCUUCCCAACAGAGGAUUGAGCAUCA
B12: chr2:217012863:217012864:+_ENSG00000079246_ENST00000392132|hu_mus|FALSE|FALSE (ssRNA)
RNA: GGGAGUUCUACAGUCCGACGAUCGAGUGGACUCUCACAUUUUGCUUUCAUCUCAGUGGGGGGAUCCAGCAUAUUCAAAAUGUGCUGCUGAAUCGGGGGCAGCCGCUCCUGGAGAUGUAAGGCUCUAUGCAGCAGACACUGGUACAACAGAGGAUUGAGCAUCA
B13: chr12:125396312:125396313:-_ENSG00000150991_ENST00000546120|hu_hu|FALSE|FALSE (ssRNA)
RNA: GGGAGUUCUACAGUCCGACGAUCAACUUAGACACCCCCCCUCAAGCGCAGGACCAAGUGCAGAGUGGACUCUUUCUGGAUGUUGUAGUCAGACAGGGUGCGUCCAUCUUCCAGCUGUUUCCCAGCAAAGAUCAACCUCUGCUGCAACAGAGGAUUGAGCAUCA
B14: chr19:37619525:37619526:+_ENSG00000197050_ENST00000337995|hu_hu|FALSE|FALSE (ssRNA)
RNA: GGGAGUUCUACAGUCCGACGAUCUUCCUUACAUUGAUAUGGUUUCUCACCAGUAUGAAUUCUCUGAUGUUGUAUAAGUAGUAAGCCACGCGCAAAGGCCUUUCCACAUUCAUUACACACAUAGGGUUUCUCACCAGUGUGAAGCAACAGAGGAUUGAGCAUCA

Some of the results follow.

In the assay the target is T1, UNK ZnF1-3. Description: nsRBNS (natural sequence RNA bind-n-seq); RBNS binding buffer (assumed for nsRBNS): 25 mM Tris pH 7.5, 150 mM KCl, 3 mM MgCl2, 0.01% Triton X-100, 500 ug/ml BSA, 20 U/ml SUPERase-In, 4 C; UNK is unkempt and MSI1 is Musashi-1; names of the RNAs are library labels; protein concentration not given here; high values mean tight binding.
Regarding B1, the binding signal was found to be 1.8 enrichment R. With B2, the binding signal is 1.09 enrichment R. As for B3, the figure is 0.359 enrichment R; as for B4, 0.458 enrichment R. Molecule B5 gave a binding signal of 0.391 enrichment R.

B6 came in with a binding signal of 0.544 enrichment R. Take B7: the binding signal turned out to be 1.32 enrichment R. The figure for B8 is 0.828 enrichment R; for B9 it is 0.949 enrichment R; for B10 it is 1.86 enrichment R. B11 displayed a binding signal of 1.27 enrichment R. B12 registered a binding signal of 1.29 enrichment R.

Molecule B13 returned a binding signal of 0.881 enrichment R. B14 displayed a binding signal of 0.772 enrichment R.
